Data reported in publication PMC4336329 (PLoS ONE, 2015).
About 14,000 (4.5%) of roughly 310,000 compounds showed an effect of 50% or more. Effects have a minus sign here. This is one part of the list.

These molecules were tested against human ether-à-go-go-related gene (hERG) potassium channel (human, UniProt Q12809) (assay: primary screen, population patch clamp on CHO cells stably expressing hERG).
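Note: peak tail current of the secondary pulse compared with the same well before compound.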

Sequence of human ether-à-go-go-related gene (hERG) potassium channel (Q12809 whole entry, looked up): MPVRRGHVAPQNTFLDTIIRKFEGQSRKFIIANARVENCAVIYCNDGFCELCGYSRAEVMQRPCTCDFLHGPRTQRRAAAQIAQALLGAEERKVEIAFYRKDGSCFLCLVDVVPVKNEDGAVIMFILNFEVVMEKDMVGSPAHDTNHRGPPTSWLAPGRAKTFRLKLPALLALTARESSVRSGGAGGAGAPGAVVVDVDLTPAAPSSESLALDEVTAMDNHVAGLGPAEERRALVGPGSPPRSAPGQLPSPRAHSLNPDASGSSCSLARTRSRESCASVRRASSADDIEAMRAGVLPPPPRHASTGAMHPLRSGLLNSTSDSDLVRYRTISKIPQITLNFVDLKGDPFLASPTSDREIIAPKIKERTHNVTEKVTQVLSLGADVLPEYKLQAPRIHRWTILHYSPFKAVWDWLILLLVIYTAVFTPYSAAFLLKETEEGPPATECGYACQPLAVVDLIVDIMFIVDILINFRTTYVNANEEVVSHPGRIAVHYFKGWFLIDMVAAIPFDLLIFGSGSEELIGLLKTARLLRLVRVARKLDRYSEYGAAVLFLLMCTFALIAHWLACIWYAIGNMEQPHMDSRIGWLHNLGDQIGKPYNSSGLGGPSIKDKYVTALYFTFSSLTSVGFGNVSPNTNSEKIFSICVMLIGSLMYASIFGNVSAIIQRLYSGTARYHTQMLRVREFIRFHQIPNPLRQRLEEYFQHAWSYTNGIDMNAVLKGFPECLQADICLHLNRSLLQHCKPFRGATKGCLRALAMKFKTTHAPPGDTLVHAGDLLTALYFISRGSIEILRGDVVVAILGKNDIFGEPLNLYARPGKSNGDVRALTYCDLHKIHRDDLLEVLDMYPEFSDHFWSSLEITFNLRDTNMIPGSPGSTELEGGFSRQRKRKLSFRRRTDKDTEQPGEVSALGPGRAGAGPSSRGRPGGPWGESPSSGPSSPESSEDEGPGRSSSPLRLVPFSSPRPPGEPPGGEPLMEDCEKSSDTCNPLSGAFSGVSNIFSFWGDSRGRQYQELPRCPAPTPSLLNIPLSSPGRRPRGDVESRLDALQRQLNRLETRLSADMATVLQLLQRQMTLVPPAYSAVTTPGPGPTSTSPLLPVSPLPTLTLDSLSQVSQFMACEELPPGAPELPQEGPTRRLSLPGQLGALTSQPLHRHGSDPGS

| SMILES | hERG current change (%, negative = inhibition) at 10uM |
| --- | --- |
| COc1ccc(CSc2nnnn2Cc2ccccc2)cc1OC | -43.2% |
| O=C(c1cnn2c1NC(c1ccco1)CC2C(F)(F)F)N1CCN(c2cccc(Cl)c2)CC1 (stereo not shown) | -18.5% |
| O=C(CSCc1ccc(Cl)cc1)N/N=C/c1ccc(Cl)cc1Cl | 0.595% |
| O=C(Nc1ccccc1)c1cccnc1Nc1ccccc1 | -3.98% |
| CCOC(=O)c1c(C)[nH]c(C(=O)OCCOc2ccc(Cl)cc2)c1C | 7.83% |
| CCC(=NCc1cccnc1)c1c(O)n(Cc2ccccc2)c(=O)[nH]c1=O | -44.6% |
| O=C(OCC(=O)N(CCc1ccccc1)Cc1ccccc1)c1ccccc1[N+](=O)[O-] | 1.95% |
| O=C1CN(C(=O)c2ccccc2F)C(c2ccc(F)cc2)c2cc(F)ccc2N1 (stereo not shown) | -11.7% |
| CN(C)c1oc(-c2cccs2)nc1C#N | 3.2% |
| O=c1ccn(-c2cccc(C(F)(F)F)c2)nc1-c1ccn(-c2cccc(Cl)c2)n1 | -10.3% |
| O=C(CSc1nc(Cc2ccccc2)nc2ccccc12)c1ccc2c(c1)OCCO2 | -2.24% |
| COc1cc(C(=O)c2cocc2C(=O)c2ccc3c(c2)OCO3)cc(OC)c1OC | -0.222% |
| CN1CCN(c2ccc(NC(=S)NC(=O)c3cccc4c(Cl)cccc34)cc2)CC1 | 0.63% |
| O=C(CCN1CCN(c2ccc([N+](=O)[O-])cc2)CC1)c1ccc(Cl)cc1 | -72.4% |
| COc1ccc(N2CCN(CC(O)COc3ccc(C)c(C)c3)CC2)cc1.Cl (stereo not shown) | -43.7% |
| O=C(O)CCCC(=O)Nc1cccc2cccnc12 | 17.1% |
| CCC(C)C1NC(=O)C(C(C)=O)=C1O (stereo not shown) | 1.82% |
| NNC(=O)c1ccc(COc2ccc(Br)cc2)o1 | 4.61% |
| COC(=O)C1=C(COc2ccccc2)NC(=O)NC1c1ccc(Br)cc1 (stereo not shown) | 0.599% |
| CN(C)Cc1cc(C(C)(C)C)c(O)c(C(C)(C)C)c1 | -26% |
| COc1ccc(CCN(Cc2ccccn2)C(=S)Nc2cccc(SC)c2)cc1OC | -37.3% |
| O=C(CN1C(=O)C(c2ccccc2)Oc2cccnc21)NCc1ccccc1F (stereo not shown) | 6.46% |
| COC(=O)c1cccc(NC(=O)CSc2ncn[nH]2)c1 | 0.85% |
| CSc1ccc(Cl)c(C(=O)NC2CCCC2)c1 | 7.82% |
| O=C(NC1CCS(=O)(=O)C1)OC1CCCCC1 (stereo not shown) | 9.09% |
| O=C(Nc1cccc(S(=O)(=O)N2CCCC2)c1)c1cc(=O)[nH]c2ccccc12 | -3.55% |
| COc1ccc(CCN2CC(C(=O)Nc3ccc(S(C)(=O)=O)cc3)CC2=O)cc1OC (stereo not shown) | -1.13% |
| CC(C)(C)NC(=O)/C(=C\c1ccco1)NC(=O)c1ccco1 | 10.7% |

| SMILES | hERG current change (%, negative = inhibition) at 10uM |
| --- | --- |
| CCC(=O)CC(c1ccccc1)c1c([O-])c2ccccc2sc1=O.[Na+] (stereo not shown) | -5.79% |
| CCSc1nnc(NC(=O)CSc2nc3c(c(=O)n2CCOC)SC(C)C3)s1 (stereo not shown) | -18.2% |
| O=C(NCC1CCCO1)c1cc(C(=O)C2CC2)c[nH]1 (stereo not shown) | -2.79% |
| CC(C)(C)SCCNC(=O)CN(c1ccc(F)cc1)S(C)(=O)=O | -2.06% |
| Cc1cc(C)n(CCCNC(=O)c2ccc(C)o2)n1 | -1.15% |
| COc1cc(OC)cc(C(=O)NCCn2ccc3ccccc32)c1 | 3.65% |
| CC(C(=O)N1CCc2ccccc21)N1CCN(S(=O)(=O)c2ccc(C(F)(F)F)cc2)CC1 (stereo not shown) | -1.64% |
| CC(=O)/C(N=Nc1nc2c([nH]1)c(=O)n(C)c(=O)n2C)=C(\C)O | 13.2% |
| CCn1ncc(CNC(=O)CCSc2nc(-c3ccco3)cc(C(F)(F)F)n2)c1C | -4.57% |
| N#CCCn1nc(-c2ccccc2)c2ccccc2c1=O | -10.1% |
| COc1cc(OC)c(NC(=O)c2ccco2)cc1Cl | -14.3% |
| CCN(C(=O)C(C)Sc1ccc(S(=O)(=O)N2CCN(C)CC2)cn1)c1ccccc1 (stereo not shown) | -11.3% |
| N=c1c(S(=O)(=O)c2ccccc2)cc2c(=O)n3ccccc3nc2n1C1CCCC1 | 1.62% |
| S=C(NCc1ccco1)N1CCN(c2cccc(Cl)c2)CC1 | -13.7% |
| COc1ccc(OC)c(NC(=O)CN2C(=O)C(=O)N(Cc3ccccc3)C2=O)c1 | 4.62% |
| COc1ccc(-c2nn(-c3ccccc3)cc2/C=N/NC(=O)c2cccc(S(=O)(=O)Nc3ccccc3OC)c2)cc1 | 1.75% |
| O=C(COC(=O)C1CCN(S(=O)(=O)c2ccc3c(c2)OCCO3)CC1)Nc1cccc2ccccc12 | 11.7% |
| COc1ccc(OCC(=O)N2CCc3c([nH]c4ccccc34)C2c2ccccn2)cc1 (stereo not shown) | 21.4% |
| Cc1cc(C(=O)COC(=O)c2cccs2)c(C)n1-c1c(C)n(C)n(-c2ccccc2)c1=O | 0.195% |
| O=C(CN1C(=O)c2ccccc2C1=O)Nc1ccccc1 | -0.118% |
| OCc1ccc2c(c1)c(-c1ccc3c(c1)OCCO3)c(-c1ccccc1)n2-c1ccccc1 | 15.8% |
| O=C(c1cccnc1Nc1ccc2c(c1)CCC2)N1CCOCC1 | -2.98% |
| O=C(Nc1ccc(N2CCOCC2)cc1)C1CCCN(S(=O)(=O)c2ccccc2)C1 (stereo not shown) | 3.11% |
| COc1ccccc1C(=O)Nc1nnc(S(=O)(=O)N2CCC(C)CC2)s1 | 6.16% |
| N#CCc1ccc(OC(=O)c2cccnc2Cl)cc1 | 16.8% |
| CCN(CCO)C(=S)Nc1cc(S(=O)(=O)N(C)C)ccc1C | 12.2% |
| O=C(Cn1ccc2ccccc2c1=O)NCCC(=O)N1CCN(C(=O)c2ccco2)CC1 | -5.55% |
